Results published in PubChem BioAssay AID485297 (National Center for Advancing Translational Sciences (NCATS), 2010).
About 9,100 (2.8%) of roughly 320,000 compounds were called active. Inconclusive means that the source gave no clear call. Such entries were picked first, then a sample of the others. Calls follow the shape of the dose curve; as a rule, active = well fitted activation curve with a large enough effect; inconclusive = small, poorly fitted or top-dose-only effect; inactive = no such curve, though single readings can be large or run the other way. No potency is given beside an inconclusive call; the fits are too rough.

Test: qHTS Assay for Rab9 Promoter Activators; also: nearly all actives have a fitted effect of over 60% in size; as to activation, negative = inhibition: % of control where 0% means no effect
Details: Huh7 Rab9 promoter-luciferase reporter, luminescence, 24 h; series mostly up to 9.22 µM; activation, negative = inhibition: at the top concentration
Method in brief: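 Huh7 cells stably carrying a Rab9 promoter-luciferase reporter, 1500 cells per well in OP-MEM I with 10% FBS, treated with compound 24 hours at 37C. Luciferase activity read by luminescence after 10 minutes with Amplite reagent.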
Potency is read from the fitted curve at half-maximal effect; tags tell the direction and shape of the fitted curve.

Row | SMILES | Potency | activation, negative = inhibition
1 | O=[N+]([O-])c1ccc(/C=C/c2ccc3cccc(O)c3n2)cc1 | inconclusive [activator, single point] | –
2 | Fc1ccc2nc(N3CCCC3)sc2c1 | inconclusive [activator, partial curve] | –
3 | CCC(=O)Nc1cccc(NC(=S)NC(=O)c2ccc(Cl)cc2Cl)c1 | inconclusive [activator, partial curve] | –
4 | CC(=O)NCCNC(=O)c1ccc(-n2c(C)ccc2C)cc1 | inconclusive [activator, partial curve] | –
5 | COC(=O)c1ccc(/C=N/Nc2nc3ccccc3[nH]2)cc1 | active: 3.16 µM | –
6 | Nc1cccn2c(-c3ccc(Cl)c(Cl)c3)cnc12 | active: 3.16 µM | –
7 | O=C(C1CCN(S(=O)(=O)c2ccccc2)CC1)N1CCc2ccccc21 | inconclusive [activator, partial curve] | –
8 | O=C(Nc1ccccc1Cc1ccccc1)c1ccncc1 | – | inactive: 0.233%
9 | CCOc1ccc(OCc2ccc(C(=O)N(CC)CC)cc2)cc1 | inconclusive [activator, partial curve] | –
10 | COCCCNC(=O)/C(=C\c1cccn1C)NC(=O)c1cccs1 | – | inactive: -1.61%
11 | COc1cccc2[nH]c(C(=O)NCCc3ccccc3)cc12 | inconclusive [activator, single point] | –
12 | COc1ccccc1N(CC1CO1)S(=O)(=O)c1ccc(C)cc1 (configuration not stated) | – | inactive: -1.33%
13 | Fc1ccccc1OCCSc1nnnn1-c1ccccc1 | inconclusive [activator, single point] | –
14 | Nc1cc(N)nc(SCCOc2ccccc2F)n1 | inconclusive [activator, partial curve] | –
15 | COC(=O)C1CCN(C(=O)/C=C/c2ccc3c(c2)OCO3)CC1 | active: 1.26 µM | –
16 | O=C(Nc1ccc(NC(=O)c2ccccc2F)cc1)c1cccs1 | active: 3.55 µM | –
17 | Cc1ccc(Sc2ncccc2C(=O)NCc2cc([N+](=O)[O-])ccc2O)c(C)c1 | active: 3.98 µM | –
18 | CCN(CC(=O)Nc1ccc(NC(C)=O)cc1)C(=O)c1ccccc1SCC(=O)N1CCCC1 | – | inactive: 0.902%
19 | COc1ccc2c(c1)c1ncn(Cc3ccco3)c(=O)c1n2C | – | inactive: 0.946%
20 | CCN1CCN(c2ccc(NC(=O)c3cnccn3)cc2)CC1 | inconclusive [activator, partial curve] | –
21 | Cc1cccc(-n2c(C)nc3cc(C(=O)N4CCOCC4)ccc32)c1 | – | inactive: 7.54%
22 | Cc1csc(SCC(=O)Nc2sccc2C#N)n1 | inconclusive [activator, partial curve] | –
23 | CCOC(=O)Cc1csc(NS(=O)(=O)c2ccc3c4c(cccc24)C(=O)N3CC)n1 | – | inactive: -1.09%
24 | O=[N+]([O-])c1ccc(Nc2ccc3ccccc3c2)nc1 | inconclusive [activator, partial curve] | –
25 | CCCCNC(=S)N(C)/N=C/c1ccc(OCc2ccc(C(=O)OC)cc2)c(OC)c1 | – | inactive: -3.97%
26 | CC(=NC1CCCC1)c1c(C)[nH]n(-c2nc3ccccc3s2)c1=O | inconclusive [activator, partial curve] | –

Row | SMILES | Potency | activation, negative = inhibition
27 | CCCN1C(=O)C(=O)N(CC(=O)c2cc(C)n(C3CC3)c2C)C1=O | active: 1.41 µM | –
28 | O=S(=O)(NCCN1CCOCC1)c1cc(Cl)ccc1Cl | – | inactive: -2.67%
29 | CC(=O)c1cccc(NC(=O)Nc2ccc3c(c2)OCO3)c1 | active: 2.51 µM | –
30 | C#Cc1ccc(C(=O)Nc2ccc(N3CCC(C)CC3)c(C(N)=O)c2)cc1 | – | inactive: -7.04%
31 | COc1cccc(NC(=O)C(=O)NCc2ccncc2)c1 | inconclusive [activator, single point] | –
32 | CC(=O)c1ccc(NC(=O)CN(c2c(C)cccc2C)S(C)(=O)=O)cc1 | inconclusive [activator, partial curve] | –
33 | CCN1CCCC1CNC(=O)C(=O)Nc1ccccc1 (configuration not stated) | inconclusive [activator, single point] | –
34 | COC(=O)Nc1nnc(/C=C/c2ccc(OC)cc2)s1 | active: 3.55 µM | –
35 | Cc1ccc(NC(=O)c2c(NC(=O)CCC(=O)O)sc3c2CCCCC3)cc1 | – | inactive: -6.43%
36 | Cc1ccc(OCc2ccc(C(=O)NN)o2)cc1C | inconclusive [activator, partial curve] | –
37 | CCCCCc1nc2c(=O)[nH]c3ccccc3c2o1 | inconclusive [activator, single point] | –
38 | COc1ccccc1CCNC(=O)C(=O)NCC1OCCN1S(=O)(=O)c1cc(F)ccc1F (configuration not stated) | – | inactive: -2.73%
39 | O=C(Cc1ccccn1)c1ccc(F)cc1 | inconclusive [activator, single point] | –
40 | Cc1ccn2cc(-c3cnoc3C)nc2c1 | inconclusive [activator, partial curve] | –
41 | Nc1nc(-c2cccnc2)nc2sc3c(c12)CCCC3 | active: 3.16 µM | –
42 | CS(=O)(=O)N1N=C(c2ccc(Br)cc2)CC1c1ccc2c(c1)OCO2 (configuration not stated) | active: 0.631 µM | –
43 | CC1(C)C2CCC(C2)C1(C)NC(=O)CN1CCN(Cc2ccccc2)CC1 (configuration not stated) | inconclusive [activator, single point] | –
44 | CCCCN1Cc2cc(C(=O)c3cc(F)ccc3O)cnc2NC1=O | inconclusive [activator, single point] | –
45 | Cn1c(-c2c(N)n(CCCc3ccccc3)c3nc4ccccc4nc23)nc2ccccc21 | – | inactive: 0.399%
46 | COc1ccc(N(C(=O)CNC(=O)c2ccco2)C(C(=O)NC2CCCC2)c2ccco2)cc1 (configuration not stated) | – | inactive: -0.182%
47 | Cc1ccc(NC(=O)C(=O)NC2CCCCC2)cc1 | active: 1.12 µM | –
48 | O=C1CCN(CCc2ccccc2)CCN1CCSc1ccccc1 | inconclusive [activator, single point] | –
49 | Cc1ccc(NC(=O)N2CCC(c3ccccc3)C2)cc1C (configuration not stated) | active: 0.794 µM | –
50 | COc1ccc2sc(NCc3ccccc3)nc2c1 | active: 3.55 µM | –
51 | Cc1ccccc1NC(=O)c1ccc2c(c1)N(C)CCS2 | inconclusive [activator, single point] | –
52 | Cc1ccc(OCCCSc2ncccn2)cc1C | inconclusive [activator, single point] | –
